Measurements: the supplement of paper PMC12462457
Counter-ions that a name gives are not always drawn. ± gives the standard deviation of the averaged measurements. This is one part of the list.

Tested on: OVCAR8
Test: cell count relative to DMSO vehicle (fold change); OVCAR8 is a high-grade serous ovarian cancer line and CX-5461 an RNA polymerase I inhibitor; higher = more surviving senescent cells (less killing)
Conditions: senescence inducer: CX-5461 3 µM 48 h, then 6 d recovery (CX senescent), exposure time 24 h

| SMILES | cell count (compound dose 1 µM) | cell count (compound dose 5 µM) |
| --- | --- | --- |
| Cn1c(=O)cc(N2CCC[C@@H](N)C2)n(Cc2ccccc2C#N)c1=O [Alogliptin (Benzoate)] | 1.2 ± 0.19 | 1.14 ± 0.093 |
| N[C@@H](CC(=O)N1CCN(C(c2ccc(F)cc2)c2ccc(F)cc2)CC1)C(=O)N1Cc2ccccc2C1 | 1.03 ± 0.22 | 1.06 ± 0.21 |
| C[C@@H]1CN(C(=O)Nc2ccc(-c3nc(N4CCOCC4)c4cnn(CCCCCCC(=O)NO)c4n3)cc2)CCO1 [HDACs/mTOR Inhibitor 1] | 0.612 ± 0.025 | 0.593 ± 0.043 |
| CNC(=O)Nc1ccc(-c2nc(N3CC4CCC(C3)O4)c3cnn(C4CCC5(CC4)OCCO5)c3n2)cc1 | 1.09 ± 0.18 | 0.816 ± 0.0014 |
| C[C@H](NP(=O)(OC[C@H]1O[C@@H](n2cc(F)c(=O)[nH]c2=O)C[C@@H]1O)Oc1cccc2ccccc12)C(=O)OCc1ccccc1 (stereo partly specified) [Fosifloxuridine nafalbenamide] | 1.02 ± 0.016 | 1.04 ± 0.05 |
| C=C1C(=O)O[C@@H]2C[C@@]3(C)CCC[C@H](C)C3=C[C@H]12 [Alantolactone] | 0.624 ± 0.15 | 0.307 ± 0.0014 |
| O[C@H]1[C@H]2c3cc4c(cc3CN3CCC(=C[C@@H]1O)[C@H]23)OCO4 [Lycorine] | 0.96 ± 0.09 | 0.969 ± 0.076 |
| Oc1c2ccccc2c2c3c(cccc13)N=N2 | 1.08 ± 0.17 | 0.808 ± 0.12 |
| CCCCC(CC)CNC(=N)NC(=N)NCCCCCCNC(=N)NC(=N)NCC(CC)CCCC (stereo unspecified) [Alexidine (dihydrochloride)] | 1.12 ± 0.081 | 0.509 ± 0.022 |
| CCCCCCc1ccc(O)cc1O | 1.09 ± 0.15 | 1.03 ± 0.096 |
| Cc1[nH]c(/C=C2\C(=O)Nc3ccc(S(=O)(=O)N(C)c4cccc(Cl)c4)cc32)c(C)c1C(=O)N1CCN(C)CC1 | 1.16 ± 0.18 | 1.14 ± 0.22 |
| CC(C)=CCC[C@](C)(O)C1CC=C(C)CC1 (stereo partly specified) | 1.04 ± 0.12 | 1.14 ± 0.13 |
| CCCCc1nc(C)c(CC(=S)N(C)C)c(=O)n1Cc1ccc(-c2ccccc2-c2nnn[nH]2)cc1 [Fimasartan] | 1.08 ± 0.016 | 1.09 ± 0.029 |
| COc1ccc(C(=O)C2CCN(CC(=O)N(Cc3nc4c(c(=O)[nH]3)COCC4)CC3CC3)CC2)cc1 | 0.936 ± 0.14 | 0.935 ± 0.11 |
| Nc1ncnc2c1c(-c1cnc3[nH]ccc3c1)nn2C1CCCC1 | 0.501 ± 0.02 | 0.0845 ± 0.0035 |
| CCCCC(=O)N(Cc1ccc(-c2ccccc2-c2nn[nH]n2)cc1)[C@H](C(=O)O)C(C)C.CCOC(=O)[C@H](C)C[C@@H](Cc1ccc(-c2ccccc2)cc1)NC(=O)CCC(=O)O [Sacubitril/Valsartan] | 1.08 ± 0.092 | 1.01 ± 0.18 |
| Cn1c(=O)n(CCC(C)(C)O)c2cc(Nc3nc(Cl)ncc3Cl)ccc21 | 1.08 ± 0.2 | 1.13 ± 0.076 |
| CC(C)=CC[C@H](O)C1=CC(=O)c2c(O)ccc(O)c2C1=O [(-)-Alkannin] | 1.11 ± 0.12 | 1.17 ± 0.22 |
| CCNC(=O)C#Cc1ccc2c(C(=Nc3ccc(CN(C)C)cc3)c3ccccc3)c(O)[nH]c2c1 | 1.31 ± 0.3 | 1.14 ± 0.15 |
| CN(C)CCCN1c2ccccc2CCc2ccccc21 | 1.02 ± 0.078 | 1.06 ± 0.14 |
| COc1ccc(/C=C/C(=O)c2c(-c3ccccc3)c3ccccc3[nH]c2=O)cc1 [Ceranib-2] | 1.01 ± 0.028 | 0.889 ± 0.1 |
| CC1(C)CC[C@]2(C(=O)n3cnc(-c4cccnc4)c3)CC[C@]3(C)[C@H](C(=O)C=C4[C@@]5(C)C=C(C#N)C(=O)C(C)(C)[C@@H]5CC[C@]43C)[C@@H]2C1 | 0.925 ± 0.15 | 0.009 |

| SMILES | cell count (compound dose 1 µM) | cell count (compound dose 5 µM) |
| --- | --- | --- |
| Clc1ccc(Nc2nnc(Cc3ccncc3)c3ccccc23)cc1 [Vatalanib (PTK787) 2HCl] | 1.12 ± 0.059 | 1.125 ± 0.011 |
| C/C=C1\[C@H]2C=C(C)C[C@]1(N)c1ccc(=O)[nH]c1C2 [(-)-Huperzine A] | 1.08 ± 0.11 | 1.13 ± 0.14 |
| CCOC(=O)[C@H](CCc1ccccc1)N[C@@H](C)C(=O)N1Cc2cc(OC)c(OC)cc2C[C@H]1C(=O)O [Moexipril (hydrochloride)] | 1.13 ± 0.17 | 1.03 ± 0.13 |
| COc1cc(/C=C/C(=O)CC(=O)/C=C/c2ccc(O)c(OC)c2)ccc1O | 1.01 ± 0.13 | 1.1 ± 0.1 |
| O=C1C(SCCO)=C(SCCO)C(=O)c2ccccc21 | 1.09 ± 0.1 | 0.007 ± 0.0014 |
| COC(=O)CC(NC(=O)OC(C)(C)C)C(=O)CF (stereo unspecified) | 1.01 ± 0.1 | 1.09 ± 0.13 |
| Cn1cnc([N+](=O)[O-])c1Sc1ncnc2[nH]cnc12 [Azathioprine] | 1.05 ± 0.16 | 1.14 ± 0.017 |
| S=C(NCc1ccc2c(c1)OCO2)N1CCN(c2ncnc3c2oc2ccccc23)CC1 [Amuvatinib (MP-470)] | 1.26 ± 0.27 | 1.11 ± 0.25 |
| COc1ccc(/C=C/C(=O)c2ccc(OC)c3c2OC(C)(C)C=C3)cc1 [Millepachine] | 1.08 ± 0.064 | 1.05 ± 0.12 |
| CN1C(=O)N[C@@H](Cc2c[nH]c3c(Cl)cccc23)C1=O [Necrostatin 2 (S enantiomer)] | 1.02 ± 0.089 | 1.13 ± 0.17 |
| CC1(C)CCC2=C(O1)c1ccccc1C(=O)C2=O [beta-LAPACHONE] | 0.989 ± 0.11 | 1.01 ± 0.089 |
| CCOC(=O)[C@@]1(CCCCCCOc2ccc(Cl)cc2)CO1 [Etomoxir] | 1.1 ± 0.29 | 1.19 ± 0.34 |
| CCOC(=O)[C@@]1(CCCCCCOc2ccc(Cl)cc2)CO1 [Etomoxir (sodium salt)] | 1.03 ± 0.13 | 0.99 ± 0.041 |
| Cn1c(Nc2ccc(C(F)(F)F)cc2)nc2cc(Oc3ccnc(-c4ncc(C(F)(F)F)[nH]4)c3)ccc21 | 1.15 ± 0.088 | 1.11 ± 0.083 |
| C[C@H](CCC(=O)O)[C@H]1CC[C@H]2[C@@H]3CC[C@@H]4C[C@H](O)CC[C@]4(C)[C@H]3CC[C@]12C [Lithocholic acid] | 1.07 ± 0.17 | 1.21 ± 0.15 |
| Cc1cc(O)c(-c2ccc([C@@H](C)CN(C)C)cc2)c2c1[nH]c(=O)c1sccc12 [OTS964 (hydrochloride)] | 0.77 ± 0.014 | 0.639 ± 0.053 |
| CCOc1cc(C(C)(C)C)ccc1C1=N[C@@](C)(c2ccc(Cl)cc2)[C@@](C)(c2ccc(Cl)cc2)N1C(=O)N1CCN(CCCS(C)(=O)=O)CC1 | 1.02 ± 0.098 | 1.01 ± 0.087 |
| C[C@H]1Oc2cc(cnc2N)-c2c(nn(C)c2C#N)CN(C)C(=O)c2ccc(F)cc21 [Lorlatinib] | 1.07 ± 0.16 | 1.02 ± 0.17 |
| O=C1NC(=O)[C@@H](c2cn3c4c(cccc24)CCC3)[C@@H]1c1c[nH]c2ccccc12 [Tivantinib] | 1.13 ± 0.066 | 0.997 ± 0.08 |
| CCc1cnn2c(NCc3ccc[n+]([O-])c3)cc(N3CCCC[C@H]3CCO)nc12 [Dinaciclib] | 0.99 ± 0.047 | 1.03 ± 0.17 |
| COc1ccc(-c2cc(=O)c3c(OC)c(OC)c(OC)cc3o2)cc1OC [Sinensetin] | 0.959 ± 0.13 | 0.965 ± 0.086 |
